We go through 1 molecule from the supplement of paper PMC8728848.

Some of the results follow.

Holding throughout (assay): glycan array binding signal (z-score within array); higher = stronger binding
What all share (settings): glycan notation: IUPAC condensed, linker removed

Assay [1] concerns the target Gal(b1-4)GlcNAc(b1-2)[Gal(b1-4)GlcNAc(b1-4)]Man(a1-3)[Gal(b1-4)GlcNAc(b1-2)Man(a1-6)]Man(b1-4)GlcNAc(b1-4)GlcNAc. In outline: (§1)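 The binding signal is a Z-score computed within each array and averaged over linkers. Arrays of the same protein sequence at different concentrations or buffers were also averaged together. Data originate from 3228 arrays in the Consortium for Functional Glycomics database, kept only where the protein sequence was available.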

The target of assay [2] is Gal(b1-4)GlcNAc(b1-2)[Gal(b1-4)GlcNAc(b1-4)]Man(a1-3)[Gal(b1-4)GlcNAc(b1-2)[Gal(b1-4)GlcNAc(b1-6)]Man(a1-6)]Man(b1-4)GlcNAc(b1-4)GlcNAc. In outline:
as §1

The target in assay [3] is Gal(b1-4)GlcNAc(b1-2)[Gal(b1-4)GlcNAc(b1-4)]Man(a1-3)[GlcNAc(b1-4)][Gal(b1-4)GlcNAc(b1-2)Man(a1-6)]Man(b1-4)GlcNAc(b1-4)GlcNAc. In outline:
as §1

The target of assay [4] is Gal(b1-4)GlcNAc(b1-2)[Gal(b1-4)GlcNAc(b1-4)]Man(a1-3)[GlcNAc(b1-4)][Gal(b1-4)GlcNAc(b1-2)[Gal(b1-4)GlcNAc(b1-6)]Man(a1-6)]Man(b1-4)GlcNAc(b1-4)GlcNAc. In outline:
as §1

Assay [5] deals with Gal(b1-4)GlcNAc(b1-2)[Gal(b1-4)GlcNAc(b1-6)]Man(a1-6)[Gal(b1-4)GlcNAc(b1-2)Man(a1-3)]Man(b1-4)GlcNAc(b1-4)GlcNAc. In a few lines:
as §1

Assay [6] concerns the target Gal(b1-4)GlcNAc(b1-2)[Gal(b1-4)GlcNAc(b1-6)]Man(a1-6)[Gal(b1-4)GlcNAc(b1-2)Man(a1-3)]Man(b1-4)GlcNAc(b1-4)[Fuc(a1-6)]GlcNAc. In outline:
as §1

Assay [7] deals with Gal(b1-4)GlcNAc(b1-2)[Gal(b1-4)GlcNAc(b1-6)]Man(a1-6)[GlcNAc(b1-4)][Gal(b1-4)GlcNAc(b1-2)Man(a1-3)]Man(b1-4)GlcNAc(b1-4)GlcNAc. In a few lines:
as §1

The target in assay [8] is Gal(b1-4)GlcNAc(b1-2)[Gal(b1-4)GlcNAc(b1-6)]Man(a1-6)[GlcNAc(b1-4)][Gal(b1-4)GlcNAc(b1-2)[Gal(b1-4)GlcNAc(b1-4)]Man(a1-3)]Man(b1-4)GlcNAc(b1-4)[Fuc(a1-6)]GlcNAc. In outline:
as §1

Assay [9] has as its target Gal(b1-4)GlcNAc(b1-3)Gal(b1-3)GalNAc. In a few lines:
as §1

For assay [10], the target named is Gal(b1-4)GlcNAc(b1-3)Gal(b1-3)GlcNAc. In outline:
as §1

The target in assay [11] is Gal(b1-4)GlcNAc(b1-3)Gal(b1-4)Glc. In a few lines:
as §1

In assay [12] the target is Gal(b1-4)GlcNAc(b1-3)Gal(b1-4)GlcNAc. In a few lines: as §1
The target in assay [13] is Gal(b1-4)GlcNAc(b1-3)Gal(b1-4)GlcNAc(b1-2)Man(a1-3)[Gal(b1-4)GlcNAc(b1-3)Gal(b1-4)GlcNAc(b1-2)Man(a1-6)]Man(b1-4)GlcNAc(b1-4)GlcNAc. In a few lines: as §1
Assay [14] addresses Gal(b1-4)GlcNAc(b1-3)Gal(b1-4)GlcNAc(b1-2)Man(a1-3)[Gal(b1-4)GlcNAc(b1-3)Gal(b1-4)GlcNAc(b1-2)Man(a1-6)]Man(b1-4)GlcNAc(b1-4)[Fuc(a1-6)]GlcNAc. In a few lines: as §1
The target in assay [15] is Gal(b1-4)GlcNAc(b1-3)Gal(b1-4)GlcNAc(b1-2)[Gal(b1-4)GlcNAc(b1-3)Gal(b1-4)GlcNAc(b1-6)]Man(a1-6)[Gal(b1-4)GlcNAc(b1-3)Gal(b1-4)GlcNAc(b1-2)Man(a1-3)]Man(b1-4)GlcNAc(b1-4)GlcNAc. In a few lines:
as §1

Assay [16] addresses Gal(b1-4)GlcNAc(b1-3)Gal(b1-4)GlcNAc(b1-2)[Gal(b1-4)GlcNAc(b1-3)Gal(b1-4)GlcNAc(b1-6)]Man(a1-6)[Gal(b1-4)GlcNAc(b1-3)Gal(b1-4)GlcNAc(b1-2)Man(a1-3)]Man(b1-4)GlcNAc(b1-4)[Fuc(a1-6)]GlcNAc. In outline: as §1
Assay [17] deals with Gal(b1-4)GlcNAc(b1-3)Gal(b1-4)GlcNAc(b1-3)Gal(b1-4)GlcNAc. In a few lines:
as §1

Assay [18] deals with Gal(b1-4)GlcNAc(b1-3)Gal(b1-4)GlcNAc(b1-3)Gal(b1-4)GlcNAc(b1-2)Man(a1-3)[Gal(b1-4)GlcNAc(b1-3)Gal(b1-4)GlcNAc(b1-3)Gal(b1-4)GlcNAc(b1-2)Man(a1-6)]Man(b1-4)GlcNAc(b1-4)GlcNAc. In a few lines:
as §1

In assay [19] the target is Gal(b1-4)GlcNAc(b1-3)Gal(b1-4)GlcNAc(b1-3)Gal(b1-4)GlcNAc(b1-2)Man(a1-3)[Gal(b1-4)GlcNAc(b1-3)Gal(b1-4)GlcNAc(b1-3)Gal(b1-4)GlcNAc(b1-2)Man(a1-6)]Man(b1-4)GlcNAc(b1-4)[Fuc(a1-6)]GlcNAc. In a few lines: as §1

B1: GSL-I (Griffonia simplicifolia) (protein)
chain: FNLPNFWSDVKDNIIFQGDANTTAGTLQLCKTNQYGNPLQYRAGRALYSDPVQLWDNKTGSVASFYTEFTFFLKITGDGPADGLAFFLAPPDSDVKDAGAYLGLFNKSTATQPSKNQVVAVEFDTWKNTDFPEPSYRHIGINVNSIVSVATKRWEDSDIFSGKIATARISYDGSAKILTVVLSYPDGADYILSHSVDLSKNLPNPIRVGISASTGANQFLTVYVLSWRFSSALQSTSVNAAMGPEIIRTVV
Regarding B1, the “glycan array binding signal (z-score)” value in assay [1] was -0.115; in assay [2], -0.161; in assay [3], -0.304; in assay [4], -0.176; in assay [5], 0.098; in assay [6], 0.097. Moreover, the “glycan array binding signal (z-score)” value in [7] is -0.255; in [8] it was -0.272; in assay [9], -0.356; in [10], -0.161; in assay [11], -0.238; in assay [12], -0.198. The “glycan array binding signal (z-score)” value is 0.662 in assay [13]; 0.153 in [14]; -0.091 in [15]; -0.021 in assay [16]; -0.25 in assay [17]; 0.929 in assay [18]. The “glycan array binding signal (z-score)” value in assay [19] was -0.136.
